Laboratory results taken from PubChem BioAssay AID485344 (National Center for Advancing Translational Sciences (NCATS), 2010).
Among all 340,000 compounds or so, about 6,900 (2%) were called active. No stated cut-off is given here; in the data, active means inhibition above about 30%; inactive means below that, where a call was filed. Only a part is listed here, and it is no random draw. The source gives no active or inactive call for entries shown without one.

What follows are compounds tested against D(2) dopamine receptor (Homo sapiens) (UniProt P14416) (assay: HTS Assay for Allosteric Antagonists of the Human D2 Dopamine Receptor: Primary Screen for Antagonists). Conditions: HEK293 TREx D2 cells, calcium flux, dopamine EC80; at 10 µM; stronger effect = higher value.
Chain of UniProt P14416 (P14416 whole entry, looked up): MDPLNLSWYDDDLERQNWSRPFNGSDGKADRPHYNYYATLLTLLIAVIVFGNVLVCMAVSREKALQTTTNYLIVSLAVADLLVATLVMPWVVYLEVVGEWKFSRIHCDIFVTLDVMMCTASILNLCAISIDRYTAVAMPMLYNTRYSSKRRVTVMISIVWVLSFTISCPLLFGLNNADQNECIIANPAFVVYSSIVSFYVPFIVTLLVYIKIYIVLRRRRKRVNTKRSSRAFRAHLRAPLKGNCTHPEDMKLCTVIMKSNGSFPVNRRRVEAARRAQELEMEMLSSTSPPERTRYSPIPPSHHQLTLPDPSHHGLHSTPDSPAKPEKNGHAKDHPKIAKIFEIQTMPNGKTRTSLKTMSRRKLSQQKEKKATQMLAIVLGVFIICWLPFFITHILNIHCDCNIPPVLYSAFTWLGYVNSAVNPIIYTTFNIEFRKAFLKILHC
Outline: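 HEK293 T-REx D2 cells, tet-induced, calcium dye no-wash. Cpd pintool add, 180 s kinetic, then EC80 DA, 180 s kinetic. Ca flux read.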
Further: 0% is about no effect.

Row | SMILES | inhibition
1 | CC(C)c1ccc(C2N=C(N)Nc3nc4ccccc4n32)cc1 (configuration not stated) | 16.4%
2 | Cc1c(C)n(C)c2ccc(C(=O)N3CCN(c4ccccc4)CC3)cc12 | 1.8%
3 | Cc1c(Cl)cccc1NC(=O)C(C)n1nnc2sc3c(c2c1=O)CCCC3 (configuration not stated) | -11.6%
4 | CSc1ncc(Cl)c(C(=O)N(Cc2ccc(N(C)C)cc2)Cc2ccco2)n1 | 7.12%
5 | Cc1cc(C)cc(NC(=O)Cn2c(=O)c3ccccc3n3nncc23)c1 | -7.36%
6 | Cc1ccc2c(=O)cc(C(=O)Nc3ccc(S(=O)(=O)N4CCCCCC4)cc3)oc2c1C | 6.23%
7 | CCc1ccc(CNC(=O)CN2C(=O)c3cccnc3Oc3ccc(C)cc32)cc1 | -8.58%
8 | CCOC(=O)c1ccccc1NC(=O)c1sc2nc3n(c(=O)c2c1C)CCCC3 | -5.07%
9 | CC1=C(c2ccc(C)cc2)S(=O)(=O)N(Cc2ccc(C(=O)Nc3ccc(F)cc3C)cc2)C1=O | 3.08%
10 | COc1ccccc1NC(=O)CN1C(=O)C2(SCC(=O)N2c2ccc(C)c(C)c2)c2ccccc21 (configuration not stated) | -4.93%
11 | Cc1ccc(N(CC(=O)Nc2cc(C)cc(C)c2)S(=O)(=O)c2cccc3nonc23)cc1 | -11.8%
12 | O=C(NCCCN1CCN(c2ccc(F)cc2)CC1)Nc1ccc([N+](=O)[O-])cc1 | active: 45.2%
13 | NS(=O)(=O)c1ccc(NC(=O)c2ccc3c(c2)CCN3S(=O)(=O)c2ccccc2)cc1 | 8.37%
14 | CCn1ccc2cc(S(=O)(=O)N3CCC(C(=O)NCCc4ccc(C)cc4)CC3)ccc21 | 19.8%
15 | COc1cc(OC)cc(C(=O)NCC(c2cccs2)S(=O)(=O)c2ccc(F)c(C)c2)c1 (configuration not stated) | -1.84%
16 | COc1ccc(CNC(=O)c2cccc(-n3cnc4cccnc43)c2C)cc1 | 3.07%
17 | CCOc1ccc(NC(=O)Cn2ccn(-c3ccc(F)c(F)c3)c(=O)c2=O)cc1 | -7.35%
18 | COc1cccc(C(=O)Nc2ccc(-c3cn4cccnc4n3)cc2)c1OC | -1.1%
19 | O=C(CN1C(=O)COc2ccccc21)NCCCN1CCN(c2ccccc2F)CC1 | active: 77.6%
20 | CCOCCSc1c(C)cnc2c1c(=O)n(C)c(=O)n2C | 9.28%
21 | COc1cc2ccccc2cc1C(=O)Nc1ccc(Cl)c(-c2nc3ccccc3o2)c1 | -16.8%

Row | SMILES | inhibition
22 | Cc1ccc(N2C(=O)c3[nH]nc(-c4ccc(Cl)cc4)c3C2c2ccc(F)cc2)cc1 (configuration not stated) | 5.84%
23 | COC(=O)C(CCSC)NC(=O)c1c(C)oc2ncn(CC(C)C)c(=O)c12 (configuration not stated) | 4.07%
24 | Cc1ccc(NC(=O)C(=O)NCC(c2cccnc2)N2CCN(C)CC2)cc1F (configuration not stated) | 17.2%
25 | O=C(c1cc2ccccc2o1)N1CCN(Cc2ccc3c(c2)OCO3)CC1 | active: 77.7%
26 | CCOC(=O)c1ccc(NC(=O)c2ccc3c(c2)NC(=O)c2ccccc2S3)cc1 | 15.7%
27 | O=C(NCc1cccnc1)c1ccc(-c2cc(Cl)ccc2Cl)o1 | active: 49.9%
28 | Cc1c(Cl)cccc1NC(=O)CSc1ncccc1C(=O)Oc1ccccc1Cl | 15.6%
29 | COc1cccc(-n2c(=O)c3c(C)c(C(=O)N(C)C)sc3n(CC(=O)NCCc3ccc(OC)c(OC)c3)c2=O)c1 | 24.4%
30 | NC(=O)c1cccnc1 | active: 40.4%
31 | CCc1ccc(NC(=O)CSc2nc3nccnc3c(=O)n2CCc2c[nH]c3ccccc23)cc1 | -15.1%
32 | COc1ccc(-c2nc(C)c(CCNC(=O)Cc3ccc(F)cc3)s2)cc1OC | 25.7%
33 | CCOc1ccc(OCC)c(NC(=O)C2CCN(S(=O)(=O)c3ccc(Br)s3)CC2)c1 | 6.68%
34 | COc1ccc2nc(SCC(=O)c3c(C)[nH]c4ccccc34)nc(C)c2c1 | 0.994%
35 | O=C(Nc1ccc(F)cc1)[C@H](CSCc1ccccc1)N1Cc2ccccc2C1=O | -4.52%
36 | O=C(COC(=O)CCCC1=NS(=O)(=O)c2ccccc2N1)Nc1ccc(Br)cc1 | -9.58%
37 | CCc1ccccc1NC(=O)C1CCC(CNS(=O)(=O)c2ccc3c(c2)CC(C)N3C(C)=O)CC1 (configuration not stated) | -13.1%
38 | COc1ccc2nc(NC(=O)c3nc(SCc4ccc(F)cc4)ncc3Cl)sc2c1 | -24.2%
39 | Cc1cn2c(=O)c(S(=O)(=O)NCCc3ccccc3)c(C)nc2s1 | 0.66%
40 | COc1ccc(-c2oc3ncnc(NCCCN(C)C)c3c2-c2ccc(OC)cc2)cc1 | active: 53.5%
41 | Cc1ccc(N2C(=O)CSC23C(=O)N(CC(=O)NC2CCCCC2)c2ccccc23)cc1 (configuration not stated) | -2.9%
42 | CCOc1cc(Cl)c(NC(=O)CC)cc1OCC | active: 70.7%

Row | SMILES | inhibition
43 | Cc1ccc(C)c(N2CCN(CCCNC(=O)Nc3cc(Cl)ccc3C)CC2)c1 | -8.48%
44 | COc1cccc(NC(=O)CCNS(=O)(=O)c2ccc(Br)s2)c1 | -0.665%
45 | CCc1nn(CC(=O)N2CCCCC2)c(=O)c2cc3sccc3n12 | -2.08%
46 | COc1ccc(CNC(=O)Cc2csc3ccccc23)cc1OC | 10.7%
47 | CC(NC(=O)c1cc(Sc2ccc(F)cc2F)nc2ccccc12)c1ccccc1 (configuration not stated) | 0.667%
48 | COc1cc(Br)c(/C=C(\C#N)c2nc3ccccc3[nH]2)cc1OC | -3.45%
49 | CCCCOc1ccc(CNC(=O)C2CCN(c3nnc(-n4cccc4CNc4ccc(C)cc4)s3)CC2)cc1 | -3.18%
50 | COc1ccc2c(c1)CCc1c(C(=O)Nc3cc(C)ccc3O)noc1-2 | 9.1%
51 | COc1ccccc1NC(=O)Cc1c(C(=O)O)[nH]c2ccc(Cl)cc12 | 2.79%
52 | Cc1ccc(-c2nc3cc(C(C)C)ccc3o2)cc1NC(=O)c1cccs1 | 5.18%
53 | Cc1cccc(NC(=O)CSc2nc3ccc(NC(=O)c4ccco4)cc3s2)c1 | 7.71%
54 | COCCn1c(C)cc(O)c(C(c2ccccc2)N2CCN(C)CC2)c1=O (configuration not stated) | -18.8%
55 | O=C1C(Cl)=C(N2CCN(Cc3ccccc3)CC2)C(=O)N1c1ccccc1 | active: 36.7%
56 | COC(=O)c1cccc(Nc2c(-c3ccc(O)c(OC)c3)nc3nc[nH]n23)c1 | 8.32%
57 | CCOc1ccc(-c2c(C)nn3c(C)c(C(=O)Nc4ccccc4C(=O)OC)cnc23)cc1OCC | -3.82%
58 | CCOc1ccc(NC(=O)C2Cc3ccccc3N2C(=O)c2ccccc2)cc1 (configuration not stated) | 0.504%
59 | Cc1nc2cc(-c3ccccc3)nn2c(C)c1CCC(=O)N1CCN(c2ccccn2)CC1 | active: 36.3%
60 | CC1CCc2cc(F)ccc2N1S(=O)(=O)c1ccc(Cl)nc1 (configuration not stated) | active: 35.4%
61 | Cc1ccccc1OCc1nnc(SCc2cc(=O)c3ccccc3[nH]2)n1C | -1.91%
62 | CCOC(=O)C1=C(CS(=O)(=O)c2c(C)cc(C)cc2C)NC(=O)NC1c1cccc(OC)c1 (configuration not stated) | -2.9%
